Data from PubChem BioAssay AID1508624 (National Center for Advancing Translational Sciences (NCATS), 2021).
Among all 48,000 compounds or so, about 120 (0.25%) were called active. About 4% were inconclusive and are not listed. The call rests on the fitted dose curve; in most records, active means well fitted activation curve with a large enough effect; inconclusive means small, poorly fitted or top-dose-only effect, or another doubt; inactive means no such curve, though single readings can be large or run the other way. The list shows a part of the results.

experiment: Primary qHTS for Identification of Small Molecule Activators of Huntingtin-Antisense Promoter Activity; conditions: HEK293 HTT-AS promoter firefly luciferase reporter, 24 h; series mostly up to 57.5 µM; activity change, positive = activation: at the top concentration; further: nearly all actives have a fitted effect of over 55% in size
How it was run: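 Firefly luciferase readout (Dual-Glo, 10 min RT) after 24 h, 37 °C compound exposure (final up to 57.5 uM) of HEK293 reporter cells cultured 24 h beforehand; PTC124 at 50 uM final as control inhibitor; activity scaled vehicle 0%, zero RLU -100%.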

Activity change, positive = activation, inactive:
Cc1ccc(CNC(=O)c2c[nH]c3ccc(S(=O)(=O)N4CCOCC4)cc3c2=O)cc1 1.58%
Cc1cc(C)n(CCc2nc3c4ccccc4nc(SCc4ccc(F)cc4)n3n2)n1 -11.1%
Cc1ccc(S(=O)(=O)c2nnn3c2nc(NC2CCCCCC2)c2sccc23)cc1C -20.7%
CC(C)c1nn2c(=O)cc(COC(=O)C3CCCCC3)nc2s1 15%
Cc1ccc(CN(Cc2ccco2)C(=O)c2ccccc2Br)o1 -36.4%
CCCOc1cccc(C2c3c(oc4ccc(F)cc4c3=O)C(=O)N2CCCN2CCOCC2)c1 (configuration not stated) -12.7%
CCCOc1ccc(-c2nonc2NC(=O)c2ccco2)cc1OCCC -8.97%
Cc1nc(-c2ccc(S(=O)(=O)N3CCN(c4cccc(C(F)(F)F)c4)CC3)cc2)co1 -37.4%
CC1CCN(C(=O)c2cc3c(=O)n(C)c4cc(Cl)ccc4c3s2)CC1 -5.14%
Cc1cc(Br)cc(C)c1NC(=O)c1sc2ncn(Cc3cccc(F)c3)c(=O)c2c1C -15.6%
Cc1ccc(-n2cnc3cc(C(=O)NCCC4=CCCCC4)ccc32)c(C)c1 -12.4%
CCOC(=O)Cc1ccc(NC(=O)N(Cc2ccc(OC)cc2)C2CCN(C(C)=O)CC2)cc1 -11.2%
Cc1cccc(C)c1OCC(=O)N(Cc1ccccc1F)C1CCS(=O)(=O)C1 (configuration not stated) -21.1%
CCc1ccc(NC(=O)c2sc(-n3nc(C)c(CCC(C)C)c3C)nc2C)cc1 -11.5%
COc1ccc(C(=O)N2CC(=O)Nc3ccc(Br)cc3C2c2ccc(F)cc2)cc1OC (configuration not stated) -24.4%
COc1ccc(NC(=O)c2ccc3oc(=O)c(S(=O)(=O)c4ccc(F)cc4)cc3c2)cc1OC -87.5%
O=C(NC1CC(=O)N(c2ccc(F)cc2)C1)C1CCCC1 (configuration not stated) -4.72%
Cc1ccc(Cc2cnc(NC(=O)c3ccc4c(c3)CC(c3ccccc3)OC4=O)s2)cc1 (configuration not stated) -20.7%
Cc1c(C(=O)Nc2ccc(F)cc2F)oc2c1-c1nn(Cc3c(F)cccc3Cl)cc1CC2 -20%
CC(=O)c1ccc(S(=O)(=O)Nc2ccc(-c3cn4c(C)csc4n3)cc2)cc1 -12.7%
COc1ccc(C)cc1NC(c1nnc(-c2ccccc2)o1)c1ccc(F)cc1Cl (configuration not stated) -13.8%
CCOC(=O)c1c(NC(=O)c2ccc(C)cc2)sc2c1CCCCC2 -11.6%
CCc1ccc(N2CC(c3nnc(NC(=O)c4ccco4)s3)CC2=O)cc1 (configuration not stated) -9.58%
N#Cc1ccccc1NC(=O)CSc1nc(-c2ccccc2)cc(C(F)(F)F)c1C#N -2.58%
COc1cc(Cl)c(C)cc1NC(=O)c1cc(S(=O)(=O)N2CCCC2)ccc1F -12.8%
Cc1ccc(Nc2nc(-c3ccccc3)nc3ccccc23)cc1 -28.5%
CCOc1ccc(C2=NC(c3ccncc3)=Nc3ccc(C)cc3N2)cc1OCC -10.6%
CCCCCCCCCCCCCCCCOP(=O)([O-])OCC[N+](C)(C)C -18.6%
COc1ccccc1-c1c(C)nn2c(-c3ccccc3)cc(-c3ccccc3)nc12 -10.2%
Cc1ccc(OCCn2cc(C(=O)c3cccs3)c3ccccc32)cc1 -22.8%
COc1cccc(/C=C/c2onc(C)c2S(=O)(=O)N2CCC(C(=O)N3CCCCC3)CC2)c1 -38.6%
COc1ccc(C2CC(=O)c3c([nH]c(C(=O)OCc4ccccc4)c3C)C2)cc1 (configuration not stated) -20.6%
COc1ccccc1NC(=O)C1=C(C)Nc2c(C(=O)Nc3ccc(C)cc3)cnn2C1c1cccc(OC)c1OC (configuration not stated) 2.56%
Cc1ccccc1NC(=O)c1cc2c(-c3ccccc3)nn(-c3ccccc3)c2s1 -5.27%
COc1ccc(N(Cc2ccccc2)C(=O)c2nc(S(C)(=O)=O)ncc2Cl)cc1 -93.5%
Cc1ccsc1/C=C/C1=NCCCN1C 2.1%
Cc1cccc(N2CCN(C(=O)Cn3nc(C)c4sc5ccccc5c4c3=O)CC2)c1C 16.7%
CCCSCCCNC(=O)C1CCN(C(=O)c2cnn(-c3ccccc3)c2-n2cccc2)CC1 -35.9%
COc1ccc(CNC(=O)Cn2c(=O)nc(-c3ccccc3)c3cc(Cl)ccc32)cc1OC 8.93%
COc1cccc(C(=O)Nc2ccc(-n3nncc3-c3ccccc3)cc2)c1OC -12.8%
CCn1c2ccccc2c2nnc(N3CCN(c4cccc(Cl)c4)CC3)nc21 -0.599%
CCOC(=O)c1c(C)[nH]c(CCC(=O)NCc2ccc(OC)c(OC)c2)c1C -1.01%
CSc1nn(CC(=O)Nc2ccccc2F)c(N)c1S(=O)(=O)c1ccccc1 -31%
CC(Cc1ccc(O)c(O)c1)(NN)C(=O)O (configuration not stated) -11.2%
COc1ccc(CNC(=O)Cc2c(C)c3cc4c(C)coc4cc3oc2=O)cc1 -5.95%
Cc1ccc(N2CCn3c2nc2c3c(=O)n(C/C=C/c3ccccc3)c(=O)n2C)cc1C -6.1%
COCCCNC(=O)Cn1c(=O)n(-c2cccc(C)c2)c(=O)c2c1c1cc(C)ccc1n2C -2.96%
CCc1ccc(NC(=O)CCc2c(C)nc3nc(-c4cc(OC)cc(OC)c4)nn3c2C)cc1 -10.8%
COc1ccc(-c2noc(CCCC(=O)Nc3cccc(Cl)c3C)n2)cc1 -79.8%
Cc1cc(NS(=O)(=O)c2ccc(N)cc2)nc(C)n1 -4.38%
Cc1ccc(CN2CCSc3ccc(C(=O)NCc4ccc(OC(C)C)cc4)cc32)cc1 -23.7%
COc1ccc(-n2nc3ccc(NC(=O)c4c(OC)cccc4OC)cc3n2)cc1 8.46%
O=C(Cn1c(=O)n(-c2ccc(F)cc2)c(=O)c2sc3ccccc3c21)NC1CCCC1 -7.22%
CCc1ccc2oc(C(=O)Nc3ccccc3OC)cc(=O)c2c1 15.5% [at 11.5 µM, percent change from vehicle, -100% = no light]
CCc1nc2ccccc2n2c(-c3ccc(C)cc3)c3c(=O)n(C)c(=O)n(C)c3c12 -6.02%
Cc1cccc(N2CCN(C(c3ccccc3)c3nnc(-c4ccccc4F)o3)CC2)c1C (configuration not stated) -16.3%
Fc1ccc(Nc2nc(SCc3ccccc3Cl)nc3ccccc23)cc1 -33.5%
Cc1cc(C)cc(NC(=O)C2CCCN(S(=O)(=O)c3cccc4nsnc34)C2)c1 (configuration not stated) -9.75%
NC(=O)C1CCN(C(=O)c2ccc3c(c2)N(Cc2cccc(Cl)c2)C(=O)c2ccccc2S3=O)CC1 (configuration not stated) -8.74%
COc1ccc(CSc2nc3ccncc3n2CC(=O)Nc2cc(C)cc(C)c2)cc1 3.8%
CCOC(=O)c1c(C)[nH]c(C)c1S(=O)(=O)NCC(=O)Nc1ccc(C)cc1C -2.89%
Cc1csc2nc(COC(=O)CNC(=O)c3ccc(F)cc3)cc(=O)n12 7.39%
CCc1ccc(NCc2cc3ccc(OC)cc3n(CC(=O)Nc3ccccc3C)c2=O)cc1 -9.04%
COc1ccc(NC(=O)CSc2nc(-c3cccs3)cc(C(F)(F)F)n2)cc1Cl -42.6%
CCc1ccc(C(=O)CC2(O)C(=O)N(CCc3ccccc3)c3ccc(Br)cc32)cc1 (configuration not stated) -34.4%
CCc1c(C)sc2c1CCN(Cc1cccc(OC)c1)C2c1ccccc1 (configuration not stated) -32.2%
CCCCN(CCCC)CCNC(=O)Cn1nc(CC)n2c(cc3sccc32)c1=O -3.27%
CCC1=Nc2cc(C(=O)NCCc3ccc(OC)c(OC)c3)ccc2Sc2ccccc21 -38%
COC(=O)c1ccc(Cl)cc1NC(=O)Nc1nnc(N(C)C2CCCCC2)s1 -14.1%
CCc1ccccc1S(=O)(=O)Cc1ccc(C(=O)NCc2ccc(Cl)cc2)o1 -40.8%
Cc1ccc(CNC(=O)C(NS(=O)(=O)c2cccs2)C(C)C)cc1 (configuration not stated) -11.1%
COc1ccc(CCC(=O)NCc2ccc3c(c2)CCN3C(=O)c2ccc(Cl)cc2)cc1 -0.663%
Cc1ccc(CSC2=Nc3ccccc3C3=NC(CCC(=O)NC4CCCCC4)C(=O)N23)cc1 (configuration not stated) -15.5%
CC(=O)c1cccc(NC(=O)CSc2nc3c(c(=O)[nH]2)CCC3)c1 -5.8%
Cc1ccc(CN(Cc2ccco2)C(=O)c2ccc(Cl)cc2Cl)cc1 -31.9%
COc1ccc(CCNC(=O)Cn2nnc(-c3ccc(Cl)cc3)n2)cc1OC -5.24%
Cc1cccc(NC(=O)CSc2ncc(-c3ccc(Br)cc3)[nH]2)c1 -11%
O=C(CSc1ccc(-c2cccs2)nn1)Nc1ccccc1 1.23%
Cc1cccc(-c2nc(CCNC(=O)COc3ccccc3)cs2)c1 -8.22%
CCN1CCc2nc(N)oc2CC1 -11%
CC(=O)c1cccc(NC(=O)Nc2c(C)n(C)n(-c3ccccc3)c2=O)c1 -24.3%
COc1ccc(-c2cc(-c3ccccc3)nc(SCC(=O)Nc3ccccc3C)c2C#N)cc1 -2.86%
CCOCCCn1c(SCC(=O)Nc2cc(C)ccc2C)nc2c(oc3ccccc32)c1=O -6.89%
COC(=O)c1ccc(NC(=O)CN2CCCN(Cc3ccc(Cl)cc3)S2(=O)=O)cc1 -32.4%
Cc1ccc(-c2nc3cc(NC(=O)c4cc5ccccc5o4)ccc3o2)cc1Cl 9.12%
CCN1CCc2c(sc(NC(=O)c3ccc(S(=O)(=O)N(CCOC)CCOC)cc3)c2C(N)=O)C1 -4.5%
CN(C)CCNC(=O)c1ccc(-n2c(-c3ccccc3)cc3c2CCCCC3)cc1 6.52%
CC(C)Oc1ccc(CN2CCc3nc(Nc4ccc5c(c4)OCCO5)ncc3C2)cc1 -13.2%
Cc1ccc(Sc2c(C(=O)NCc3cccc(F)c3)[nH]c3ccccc23)cc1 0.874%
CC(NC(=O)CN1C(=O)COc2ccc(S(=O)(=O)N3CCCCCC3)cc21)c1ccccc1 (configuration not stated) -18.4%
CCCCCCCCCCCCCC[N+](C)(C)C -27.4%
COc1ccc(CC(=O)NCCS(=O)(=O)N2CCN(c3ccccc3F)CC2)cc1OC -22.7%
Cc1ccc(C(=O)Nc2ccccc2C(=O)OCc2cc(=O)n3nc(C(C)C)sc3n2)cc1 4.41%
Cc1ccc(Cl)cc1N1CCN(CCCNC(=O)Cn2ncc3c([nH]c4ccccc43)c2=O)CC1 -0.751%
Cc1ccc(C)c(NC(=O)CN(C)S(=O)(=O)c2cccc3cccnc23)c1 -14.7%
Cc1ccc(C)c(NC(=O)CSc2nc(-c3ccccc3)c(C#N)c(=O)[nH]2)c1 -11.8%
COC(=O)c1ccccc1NC(=O)C1=CC(c2ccc3c(c2)OCO3)=NS(=O)(=O)N1C -3.45%
